From PubChem BioAssay AID1347417 (National Center for Advancing Translational Sciences (NCATS), 2020)
Screen size: about 120,000 compounds; about 5,300 (4.4%) were called active. Inconclusive results, whose numbers are uncertain, are shown with a selection of clear calls. Calls come from the whole dose curve; as a rule, active = well fitted inhibition curve with a large enough effect; inconclusive = small, poorly fitted or top-dose-only effect; inactive = no such curve, though single readings can be large or run the other way. Potencies beside an inconclusive call are fits to weak or partial responses and may not hold up.

assay: qHTS Primary assay for Inhibitors of Plasmodium falciparum Dd2 growth in vitro; note: nearly all actives have a fitted effect of over 65% in size;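 for activity, negative = inhibition: plate controls were DMSO vehicle for no effect and reference drug for full effect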; conditions: P. falciparum Dd2 growth, SYBR Green, 72 h; activity, negative = inhibition: at 28.9 µM (top of the series) unless noted; series mostly up to 28.9 µM
Procedure, shortened: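 Readout: SYBR Green fluorescence, 485 nm excitation, 535 nm emission, after ~16 h lysis at 37C. Before that, Dd2-infected red cells (2.5% hematocrit) grew 72 h with compound, 29 uM top final concentration.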
Potency is the fitted concentration of half-maximal effect; tags give direction and shape of the fitted curve.

| SMILES | Potency | activity, negative = inhibition | outcome |
| --- | --- | --- | --- |
| CCN1C(=O)C2(CCN(S(=O)(=O)c3cccc(OC)c3)CC2)c2ccccc21 | inconclusive: 14.1 µM [inhibitor, partial curve, poor fit] | – | – |
| Cc1ccc(C(=O)N2CCOC(CN(Cc3ccco3)C(=O)c3ccc(F)cc3)C2)cc1 (stereo unspecified) | inconclusive: 7.94 µM [inhibitor, single point] | – | – |
| Cc1c(CN2CCCC(CNC(=O)c3cccc4ccccc34)C2)[nH]c2ccccc12 (stereo unspecified) | active: 11.2 µM | – | – |
| CC(C)(C)c1ccc(C(=O)Nc2ccc(NC(=O)c3ccc(Cl)c(Cl)c3)cc2)cc1 | – | inactive: 11.1% | – |
| COCCN(C)Cc1cn(Cc2ccccc2)nc1-c1ccc2c(c1)OCO2 | inconclusive: 3.98 µM [inhibitor, partial curve] | – | – |
| Cn1c(=O)[nH]c(=O)c2c1nc(CN1CCN(c3ccccc3)CC1)n2Cc1c(F)cccc1Cl | inconclusive: 8.91 µM [inhibitor, partial curve, poor fit] | – | – |
| O=C1N(c2ccccc2)c2ccccc2C12CCN([S+](=O)([O-])c1cccc(C(F)(F)F)c1)C2 (stereo unspecified) | inconclusive: 10 µM [inhibitor, single point] | – | – |
| COc1cccc(-c2n[nH]c3c2CC(=O)N(Cc2ccccc2F)C3)c1OC | – | – | inactive [at 44.1 µM] |
| COc1ccccc1NC(=O)c1ccc(-c2nc(COc3ccc(C)cc3)c(C)o2)cc1 | inconclusive: 11.2 µM [inhibitor, single point] | – | – |
| CC(C)CCN1CCCC2(COc3ccccc3C(=O)N2)C1 (stereo unspecified) | inconclusive: 12.6 µM [inhibitor, single point] | – | – |
| Cc1noc(C)c1-c1cc2cc(CO)oc2c(NC2CCN(C)CC2)n1 | inconclusive: 5.62 µM [inhibitor, single point] | – | – |
| COCCOc1ccnc(-c2noc([C@@H]3CCCN3Cc3ccc4c(c3)OCO4)n2)c1 | inconclusive: 2.51 µM [inhibitor, full curve, poor fit] | – | – |
| COc1cc2c(cc1OCc1ccccc1)N([S+](=O)([O-])c1cn(C)cn1)CC21CCN(C)CC1 | inconclusive: 2.51 µM [inhibitor, partial curve] | – | – |
| CC(=O)N1Cc2ccccc2CC2(CCCCN2Cc2ccccn2)C1 (stereo unspecified) | inconclusive: 11.2 µM [inhibitor, partial curve] | – | – |
| COc1ccc(CN2C[C@@H](F)[C@@H](OCc3nc4ncccc4[nH]3)C2)cc1 | – | inactive: -13.5% [at 44.1 µM] | – |
| CCC(CC)NC(=O)CCC1CCN(C(=O)c2ccccc2Cl)CC1 | – | inactive: -12.6% | – |
| COc1ccc(-c2nn(-c3ccc(C)c(Cl)c3)c3c2cnc2cc(OC)c(OC)cc23)cc1 | inconclusive: 3.98 µM [inhibitor, single point] | – | – |
| COc1ccc(Cl)cc1C(=O)Nc1cccc(-c2nnc3n2CCCC3)c1 | inconclusive: 11.2 µM [inhibitor, partial curve, poor fit] | – | – |
| COc1ccc2c(c1)CN(C(=O)N1CCOCC1)CC[C@H]1COC(=O)N21 | – | inactive: 10.9% [at 44.1 µM] | – |
| Cc1noc(C)c1C(=O)N1CCC2(CC1)CN(C(=O)Cc1cccc(Cl)c1)CCO2 | – | inconclusive: -85.6% [inhibitor] | – |
| Cc1cccc(CN2CCCC3(Cc4ccccc4CNC3=O)C2)c1 (stereo unspecified) | inconclusive: 11.2 µM [inhibitor, partial curve] | – | – |
| N#Cc1cccc(S(=O)(=O)N2CC(C(=O)NC3CCCCC3)C3(CCOCC3)C2)c1 (stereo unspecified) | inconclusive: 0.0708 µM [inhibitor, full curve, poor fit] | – | – |

| SMILES | Potency | activity, negative = inhibition | outcome |
| --- | --- | --- | --- |
| COc1ccc(C2CC(=O)c3cc(-c4nc(-c5ccc(C)cc5)cs4)c(=O)[nH]c3C2)cc1 (stereo unspecified) | inconclusive: 5.01 µM [inhibitor, partial curve, poor fit] | – | – |
| CCC(CC)NC(=O)c1cnc2cc(C)nn2c1 | – | inactive: 6.36% [at 44.1 µM] | – |
| COc1ccc(C(=O)N2CCC(C(NC(=O)c3cccc(OC)c3)C(=O)N3CCCC3)CC2)cc1 (stereo unspecified) | – | – | inactive |
| CNC(=O)[C@@H](C1CC1)N1CCC[C@H]1C(=O)N1CCC(C)CC1 | – | inactive: -3.28% [at 44.1 µM] | – |
| CCCC(=O)N1Cc2ccccc2CC2(CCCCN2C)C1 (stereo unspecified) | inconclusive: 8.91 µM [inhibitor, partial curve, poor fit] | – | – |
| CCc1cccc(NC(=O)CSc2nc3ccccc3nc2N2CCCCC2)c1 | inconclusive: 17.8 µM [inhibitor, single point] | – | – |
| COCc1cc(C)nc2sc(C(=O)Nc3ccc(C(C)=O)cc3)c(N)c12 | inconclusive: 11.2 µM [inhibitor, single point] | – | – |
| CCC(C)NC(=O)C1COC2(CCC(C)CC2)N1C(=O)c1cccc(C)c1 (stereo unspecified) | – | inactive: -20% | – |
| CCc1ccccc1NC(=O)c1ccc(Cn2nc(N3CCN(c4ccccc4)CC3)ccc2=O)o1 | inconclusive: 15.8 µM [inhibitor, single point] | – | – |
| Cc1cccc(N2CCN(C(=O)c3cnn(-c4ccc(F)cc4F)c3C3CCN(C(=O)OC(C)(C)C)CC3)CC2)c1C | inconclusive: 3.55 µM [inhibitor, single point] | – | – |
| Cn1nccc1C(=O)N1CCC(Oc2ccccc2-c2nc(-c3ccccc3)no2)C1 (stereo unspecified) | inconclusive: 11.2 µM [inhibitor, partial curve] | – | – |
| COc1ccc2c(C)c(C(=O)N3CC(Oc4c(C)cccc4C)C3)oc2c1 | inconclusive: 0.0631 µM [inhibitor, full curve, poor fit] | – | – |
| COc1ccc(-c2cc(N3CCCN(C(=O)c4ccccc4OC)CC3)n[nH]2)cc1 | inconclusive: 3.98 µM [inhibitor, single point] | – | – |
| COc1ccc(-n2c(SCC(=O)NCc3ccco3)nc3c([nH]c4ccccc43)c2=O)cc1 | inconclusive: 17.8 µM [inhibitor, partial curve, poor fit] | – | – |
| CCCn1c2ccccc2c2cnn(CC(=O)N(CC)c3cc(C)ccc3C)c(=O)c21 | – | inactive: 28.1% | – |
| CCOC(=O)c1cc2c(=O)n3ccccc3nc2n(Cc2ccco2)c1=NC(=O)c1cccc(C)c1 | inconclusive: 10 µM [inhibitor, single point] | – | – |
| CC(=O)NCCNC(=O)C[C@@H]1c2nc(NC(=O)C3CCCCC3)sc2C[C@@H]2[C@](C)(CO)[C@H](O)CC[C@]21C | inconclusive: 5.01 µM [inhibitor, partial curve, poor fit] | – | – |
| COc1ccc(CN2CCc3nn(CC(C)C)c(=O)n3CC2)cc1Cn1ccnc1 | – | inactive: 6.65% | – |
| Cc1noc(-c2ccc3c(c2)OCO3)c1C(=O)NCCCCc1ccccc1 | – | – | inactive |
| COc1cc(NC(=O)CCc2c(C)nc3c(-c4ccc(F)cc4)c(C)nn3c2C)cc(OC)c1OC | inconclusive: 12.6 µM [inhibitor, single point] | – | – |
| O=C(NCCN1CCOCC1)c1ccc2c(c1)n(Cc1cccc(F)c1)c(=O)c1ccnn12 | inconclusive: 1.58 µM [inhibitor, partial curve, poor fit] | – | – |
| Cc1nc(-c2ccc(N(C)C)cc2)cc([C@H]2CN3CC[C@H]2C[C@@H]3COC(=O)Nc2ccc(C(C)C)cc2)n1 | active: 3.98 µM | – | – |

| SMILES | Potency | activity, negative = inhibition | outcome |
| --- | --- | --- | --- |
| CNc1cc(C)nc(N2CCN(Cc3cccc(OC)c3)C(CCO)C2)n1 (stereo unspecified) | – | inactive: -10.5% | – |
| Cc1ccc(C)c(N2CCN(C(=O)CCS(=O)(=O)c3cc(Br)cc4c3N(C(=O)C3CC3)CC4)CC2)c1 | active: 11.2 µM | – | – |
| Cc1cnc(C(=O)N2[C@H]3CC[C@@H]2c2cnc(-c4ccc(F)cc4)nc2C3)cn1 | – | – | inactive |
| CN1CC2(CCN(C(=O)Nc3ccc4c(c3)OCCO4)CC2)CC1C(=O)N1CCOCC1 (stereo unspecified) | – | inactive: -0.68% | – |
| COc1cc(C(=O)N2CCC(C(=O)O)(n3cccn3)CC2)ccc1F | – | inactive: -9.49% | – |
| Cc1nn(-c2ccccc2)c2sc(C(=O)Nc3cccc(Cl)c3)cc12 | inconclusive: 17.8 µM [inhibitor, single point] | – | – |
| COc1ccc(CCNc2nc(SCc3ccccc3F)nc3ccccc23)cc1OC | inconclusive: 7.94 µM [inhibitor, partial curve, poor fit] | – | – |
| CC(C)NC(=O)c1ccccc1OCC1CCCN(Cc2ccccn2)C1 (stereo unspecified) | – | – | inactive |
| O=C(Cc1cccc(Cl)c1)N1CCC(n2cnnc2C2CC2)CC1 | inconclusive: 6.31 µM [inhibitor, single point] | – | – |
| C=CCNC(=O)N1CC[C@@H](CC(=O)O)[C@@H](CC2=NCCc3cc(OC)ccc32)C1 | – | inactive: -9.59% [at 44.1 µM] | – |
| COC(=O)c1sc(N2C(=O)c3oc4ccc(C)cc4c(=O)c3C2c2ccc(O)c(OC)c2)nc1C (stereo unspecified) | inconclusive: 0.0708 µM [inhibitor, full curve, poor fit] | – | – |
| Cc1nc(-c2cnccn2)n(CC(=O)Nc2ccc(F)c(Cl)c2)c(=O)c1C | – | inactive: -27.8% | – |
| CC(NC(=O)CCc1conc1-c1ccccc1)c1ccc(F)cc1 (stereo unspecified) | – | – | inactive |
| CCOCc1nc(C2CCCN2C(=O)Nc2ccccc2F)no1 (stereo unspecified) | – | inactive: 22.4% | – |
| Cc1nn(C)c(C)c1C(=O)N[C@@H]1CN(S(C)(=O)=O)C[C@H]1CN(C)C | – | inactive: 38.5% | – |
| Cc1cc(=O)n(CC(=O)Nc2ccc(C)c(Cl)c2)c(N2CCN(c3ccccc3)CC2)n1 | inconclusive: 8.91 µM [inhibitor, partial curve, poor fit] | – | – |
| Cc1noc(C)c1-c1cc2cc(C(C)C)oc2c(N(C)CCN(C)C)n1 | inconclusive: 2 µM [inhibitor, partial curve, poor fit] | – | – |
| CC(C)C(=O)N1CCc2c(n(Cc3cccnc3)n(CCc3ccccc3)c2=O)C1 | – | inactive: 15.3% [at 44.1 µM] | – |
| CC1(C)[C@H](Cc2cc(CN3CCOCC3)on2)C[C@@H]1NS(=O)(=O)Cc1ccccc1 | – | inactive: -24.1% [at 44.1 µM] | – |
| COCCOCC1(CNC(=O)c2cc(C)nn2C)C[C@@H](O)[C@@H](O)C1 (stereo partly specified) | – | inactive: -22.5% [at 44.1 µM] | – |
| COc1ccc(-n2ncc(C(=O)N3CCN(C4CCCCC4)CC3)c2C2CCN(C(=O)OC(C)(C)C)CC2)cc1 | inconclusive: 17.8 µM [inhibitor, single point] | – | – |
| COC1CN(c2cccc(F)c2)C12CCN(CC1CCCCC1)CC2 (stereo unspecified) | inconclusive: 2.24 µM [inhibitor, single point] | – | – |
